Experimental findings from PubChem BioAssay AID1645887 (National Center for Advancing Translational Sciences (NCATS), 2021) are described below.

SMILES strings stand for the structures. Several values for one entry are separate records, joined by “and”; a condition that tells them apart may be missing. Identical values can stand only once. In all, about 16,000 compounds went through this assay and about 40 (0.2%) were called active. Another 1% or so got no clear call; they are omitted. Calls follow the shape of the dose curve; as a rule, active = well fitted activation curve with a large enough effect; inconclusive = small, poorly fitted or top-dose-only effect, or another doubt; inactive = no such curve, though single readings can be large or run the other way. The list shows a part of the results.
% is scaled to controls: 0 for no effect and ±100 for the full control effect.

The test concerns the target Rap guanine nucleotide exchange factor 4 (Homo sapiens) (UniProt Q8WZA2). Briefly: Validation qHTS for agonist of cAMP-regulated guanine nucleotide exchange factor 4 (EPAC2).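 Also: exchange makes BODIPY-GDP fluorescence drop when released from Rap1B; series mostly up to about 150 µM.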 The note with it: EPAC2 Rap1B BODIPY-GDP exchange, fluorescence; activation: active compounds read high. Summed up: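 Signal normalized against 6.5 mM cAMP as agonist control. Mix of EPAC2 (100 nM), RAP1B-BODIPY-GDP (250 nM) and GDP (50 uM) was read kinetically at 480/540 nm, every 5 min over 30 min, after 5 min room-temperature incubation with compound.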
Sequence of UniProt Q8WZA2 (Q8WZA2 whole entry, looked up): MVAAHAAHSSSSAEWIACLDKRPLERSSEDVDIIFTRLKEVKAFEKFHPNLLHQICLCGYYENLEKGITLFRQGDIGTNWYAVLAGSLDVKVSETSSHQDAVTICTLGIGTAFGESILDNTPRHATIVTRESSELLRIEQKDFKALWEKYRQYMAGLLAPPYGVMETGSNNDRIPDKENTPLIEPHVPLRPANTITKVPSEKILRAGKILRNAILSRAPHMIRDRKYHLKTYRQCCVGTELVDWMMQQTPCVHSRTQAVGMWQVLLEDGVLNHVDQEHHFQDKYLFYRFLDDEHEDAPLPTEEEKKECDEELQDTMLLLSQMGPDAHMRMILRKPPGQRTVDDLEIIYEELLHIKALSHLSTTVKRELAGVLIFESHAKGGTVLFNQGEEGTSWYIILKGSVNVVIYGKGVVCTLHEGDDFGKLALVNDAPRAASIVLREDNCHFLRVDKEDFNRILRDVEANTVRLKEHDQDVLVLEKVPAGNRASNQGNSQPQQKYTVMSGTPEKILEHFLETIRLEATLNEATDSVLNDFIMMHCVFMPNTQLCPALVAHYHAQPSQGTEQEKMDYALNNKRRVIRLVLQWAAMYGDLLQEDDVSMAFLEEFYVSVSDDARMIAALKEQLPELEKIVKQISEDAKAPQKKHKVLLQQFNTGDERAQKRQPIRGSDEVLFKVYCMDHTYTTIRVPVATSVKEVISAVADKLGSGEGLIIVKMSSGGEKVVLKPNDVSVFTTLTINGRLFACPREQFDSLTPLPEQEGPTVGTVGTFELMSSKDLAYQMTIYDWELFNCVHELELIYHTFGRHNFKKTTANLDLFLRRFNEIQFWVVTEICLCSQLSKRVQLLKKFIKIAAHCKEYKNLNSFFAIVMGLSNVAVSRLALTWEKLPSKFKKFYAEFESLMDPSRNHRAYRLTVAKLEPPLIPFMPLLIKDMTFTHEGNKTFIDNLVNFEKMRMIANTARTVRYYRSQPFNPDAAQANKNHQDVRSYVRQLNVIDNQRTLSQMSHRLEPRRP
As to `COc1cc(NC(C)CCCN)c2ncccc2c1` (stereo not given), the activation was inactive: 5.22% and inactive: -2.74%. In the case of `O=c1[nH]c(=O)n([C@H]2C[C@H](O)[C@@H](CO)O2)cc1Br` it was inactive: 6.47% and inactive: -2.95% and inactive: -9.13%.

On to `COc1ccc(/C(=C\C(=O)O)c2nccc3cc(OC)c(OC)cc23)cc1OC`, for which the activation is inactive: -12.7%. On to `CSc1nc2cc(Oc3cccc(Cl)c3Cl)c(Cl)cc2[nH]1`, for which the activation is inactive: 1.25%. Consider `COc1cccc(-c2ccc3ncnc(N4CCNCC4)c3c2)c1`, for which the activation is inactive: -2.62%. To `CC(=O)CC/C=C(\C)CC/C=C(\C)CC/C=C(\C)CCC=C(C)C` belongs inactive: -8.99%; to `O=C(c1cc(C(F)(F)F)cc(C(F)(F)F)c1)N1CCC2(CCCN(c3ccccc3)C2)CC1`, inactive: 2.95%. As for `COc1ccc(CNc2ccnc(-c3ccoc3)n2)c(OC)c1`, the activation is inactive: -3.28%. To `COc1ccc(Oc2ncc3nc(C)c(=O)n(C)c3n2)cc1` belongs inactive: -8.18%; to `CCCCNc1c(C(=O)OCC)c(C)nc2c1cnn2CC`, inactive: -13.6% and inactive: -21.3%; to `Nc1c(N=Nc2ccc(-c3ccc(N=Nc4cc(S(=O)(=O)O)c5ccccc5c4N)cc3)cc2)cc(S(=O)(=O)O)c2ccccc12`, inactive: -13.7%. To `O=S(=O)(O)O` belongs inactive: -6.75%; to `N[C@@H](C(=O)O)[C@H](CC(=O)O)c1ccc(Cl)cc1`, inactive: -12.2%. Consider `OC[C@H]1O[C@@H](n2cnc3c(Nc4ccccc4)ncnc32)[C@H](O)[C@@H]1O`, for which the activation was inactive: -27.2%. In the case of `CN(C)c1nc2cc(Cl)ccc2cc1CN(Cc1ccc2c(c1)OCO2)C(=O)c1ccoc1` it was inactive: -17.4%. In the case of `CC(=O)C[C@H]1c2cc(C(F)(F)F)ccc2S(=O)(=O)N1c1ccccc1` it was inactive: -7.56%; in that of `Cc1cc(-c2ccnc(-n3ncc(C(=O)NCC(C)(C)N4CCOCC4)c3C)n2)c(C)s1`, inactive: 2.13%. To `COC1(C)CCC2OC2(C)CCC2C1CC2(C)C` (stereo not given) belongs inactive: -6.56%; to `CN(C)c1ccc(/C=C2/CCCc3c2nc2ccccc2c3C(=O)O)cc1`, inactive: -21.8%.

With `Nc1ccc(CCNc2ncnc3c2ncn3C2OC(CO)C(O)C2O)cc1` (stereo not given), the activation is inactive: -2.64% and inactive: -9.47%. `C=Cc1c(C)c2cc3nc(cc4[nH]c(cc5nc(cc1[nH]2)C(C)=C5CCC(=O)OC)c(CCC(=O)O)c4C)[C@@]1(C)C3=CC=C(C(=O)OC)[C@H]1C(=O)OC`: the activation is inactive: 0.217%. In the case of `COc1ccc(-n2c(=O)c(CCc3ccccc3)nc3cnc(N4CCNCC4)nc32)cc1` it was inactive: -17.5%; in that of `OC(CN1CCN(c2cccc(Cl)c2)CC1)C(c1ccccc1)c1ccccc1` (stereo not given), inactive: -14.6% and inactive: 7.57%. To `CN(C)C(=O)c1ccc(-c2nccc(NCc3cccnc3)n2)cc1` belongs inactive: -6.8%; to `CC(C)(O)[C@@H]1CCC[N+]2(C)CCCC[C@H]12` (stereo not given in full), inactive: -9.15%; to `O=C(c1ccccc1-n1cccn1)N1CCOc2ccc(CN3CCOCC3)cc2C1`, inactive: -2.18%. In the case of `Cc1cccc(C(=O)N2CCOc3ccc(CN(C)Cc4cc(C5CC5)n[nH]4)cc3C2)n1` it was inactive: -12.8%; in that of `CN(C)c1ccc(/C=C/c2ccnc3c2ccc2c(/C=C/c4ccc(N(C)C)cc4)ccnc23)cc1`, inactive: -23.4%; in that of `NC1C=CC=C(C(=O)O)C1` (stereo not given), inactive: 4.15% and inactive: -23.5%. On to `COc1ccc2[nH]cc(CCNc3cc(-c4ccccc4CN(C)C)ncn3)c2c1`, for which the activation was inactive: -27.9%. To `CC(C)(Sc1ccc(CCN(CCCCC2CCCCC2)C(=O)NC2CCCCC2)cc1)C(=O)O` belongs inactive: -6.16% and inactive: -59.3%.

On to `C[C@H](NC(=O)OC(C)(C)C)[C@@H](O)c1ccco1`, for which the activation is inactive: -21.2%. With `CSc1ccc2c(c1)N(CCC1CCCCN1C)c1ccccc1S2` (stereo not given), the activation is inactive: 1.09% and inactive: 6.73% and inactive: -14.5%.

For the compound `CCCCC[C@H]1CN(CCCC)C(=O)[C@@H]1CC(=O)NCc1ccc(OC)cc1`, the activation is inactive: -36.5%. In the case of `CC/C(=C(/CC)c1ccc(O)cc1)c1ccc(O)cc1` it was inactive: -1.29% and inactive: 0.832%; in that of `O=c1cc(-c2ccc(O)cc2)oc2cc(O[C@H]3OC(CO)C(O)C(O)C3O)cc(O)c12` (stereo not given in full), inactive: -9.92%. Turning to `Cc1ccccc1C(=O)N1CCc2c(cnc(C)c2CNC(=O)CN2CCCCC2)C1`, the activation was inactive: -2.25%. Turning to `CC(=O)O[C@@H]1C(=O)O[C@@H]2[C@H]1OC(=O)[C@@H]2OC(C)=O`, the activation was inactive: 5.75%. To `Cc1cc(S(=O)(=O)NCc2nc(N3CCCC3)c3cc(Cl)ccc3n2)c(C)s1` belongs inactive: -4.51%; to `Cc1ccccc1-c1cc(Nc2ccc(F)cc2)ncn1`, inactive: -15.9%.

`CS(=O)(=O)N1CCC2(CCCN(C(=O)Nc3cccc(F)c3)C2)CC1`: the activation was inactive: -8.84%. To `COCCNc1nc(-c2ccccc2CN(C)C)nc2ccccc12` belongs inactive: 1.48%; to `NC(N)=Nc1nc(CSCC/C(N)=N/S(N)(=O)=O)cs1`, inactive: -9.18% and inactive: -12.1%. As to `N#Cc1cccc(NC(=O)N2CC3(CCN(C(=O)c4cnccn4)CC3)C2)c1`, the activation was inactive: -1.69%. As to `COc1ccc(-c2cc(=O)c3c(OC(C)=O)cc(OC(C)=O)cc3o2)cc1`, the activation is inactive: 5.51%.

Consider `Cc1cc(-c2ccccc2)nnc1NCCN1CCOCC1`, for which the activation is inactive: 3.61% and inactive: -23.4%. To `CN(Cc1ccco1)c1ncnc2ccc(-c3ccccc3C#N)cc12` belongs inactive: 5.13%; to `C[C@@H]1CN(Cc2ccc3c(c2)CN(Cc2cccc4cccnc24)CCO3)C[C@H](C)O1`, inactive: -5.06%. To `Cc1cnc(CNc2ncnc3ccc(-c4ccccc4C#N)cc23)cn1` belongs inactive: -3.32%; to `Cn1c(-c2ccncc2)nc2cc(C(=O)N[C@H]3CCCCNC3=O)cc(NC(=O)C3CCC3)c21`, inactive: -13.7%; to `COc1cc(=O)n2c(c1C(=O)NCc1ccco1)CCN(Cc1ccccc1)CC2`, inactive: 0.141%. In the case of `NCCNS(=O)(=O)c1cccc2cnccc12` it was inactive: -12.5% and inactive: 8.19%. Regarding `CCc1nc2cc(C(=O)N3CCC[C@H]3C(=O)OC)cc(NC(=O)c3ccccc3OC)c2n1C`, the activation is inactive: -4.33%.

In the case of `COCCn1c(=O)c(-c2ccc(F)cc2)nc2cnc(OC)nc21`, the activation was inactive: -23.4%. For the compound `COc1ccc(-c2nc3cc(F)ccc3cc2CN(C(=O)c2cccc(OC)c2)C2CC2)cc1`, the activation is inactive: -12.5%. In the case of `COC(=O)CC1C2(C)CC34OC5(C)O[C@@]6(C7/C(=C(/OC)C(C)C)C(=O)OC(c8ccoc8)[C@@]7(C)C(OC(=O)C(C)C)C(OC)[C@]6(O5)[C@@]13C)C(OC)[C@]4(OC)C2OC(C)=O` (stereo not given in full) it was inactive: -45.9%. In the case of `CC(C)CCCC(C)C1CCC2C3CC(O)[C@@]4(O)CC(O)CC[C@@]4(C)C3CC[C@@]12C` (stereo not given in full) it was inactive: -22.3%.

In the case of `O=c1ccc2ccc(O[C@@H]3O[C@H](CO)[C@@H](O)[C@H](O)[C@H]3O)c(O)c2o1`, the activation is inactive: -12.5%. To `CCC[C@H]1COCCS(=O)(=O)N1Cc1ccccc1` belongs inactive: -18.1%. On to `CCN(CCO)CCCC(C)Nc1ccnc2cc(Cl)ccc12` (stereo not given), for which the activation is inactive: -23.1% and inactive: -7.69%. To `Cc1nc(Nc2ncc(C(=O)Nc3c(C)cccc3Cl)s2)cc(N2CCN(CCO)CC2)n1` belongs inactive: -22.4%; to `C=C(C)C1CC=C(CO)CC1` (stereo not given), inactive: -6.94%; to `CC(C)CN1CCCC2(CCN(C(=O)c3cnccn3)CC2)C1`, inactive: -16.9%. To `CON` belongs inactive: -13%; to `CC(CCC(=O)O)C1CCC2C3CC(O)[C@@H]4CC(O)CC[C@]4(C)C3CC[C@@]12C` (stereo not given in full), inactive: -5.3%.

`CS(=O)(=O)Nc1cccc(-c2cncnc2NCc2cccs2)c1`: the activation is inactive: 3.66%.

With `CN(Cc1ccco1)c1ncnc2ccc(-c3ccccc3C(F)(F)F)cc12`, the activation is inactive: -4.16%.

In the case of `COc1ccc2[nH]cc(CCNc3ncncc3-c3ccccc3CN(C)C)c2c1`, the activation is inactive: 7%. In the case of `O=C(NCc1ccncc1)c1cnn(-c2nccc(-c3cc4ccccc4o3)n2)c1C1CC1` it was inactive: -3.94%. In the case of `CN(C)c1ncc2nc(-c3ccccc3)c(=O)n(CCC#N)c2n1`, the activation is inactive: -9.06%.

Take `CN1CCCCC1CCN1c2ccccc2Sc2ccc(S(C)=O)cc21` (stereo not given): the activation was inactive: -14.9% and inactive: -19.4% and inactive: -9.19%. With `O=C(NC1CCN(Cc2ccccc2)CC1)c1ccc(I)cc1`, the activation is inactive: -22.5% and inactive: -5.74%. To `CC(C)c1ccc2c(c1)c(SC(C)(C)C)c(CC(C)(C)C(=O)O)n2Cc1ccc(Cl)cc1` belongs inactive: -24% and inactive: -102%; to `CC(C)C(NC(=O)c1ccoc1)c1nnc2n1CCN(Cc1ccc3c(c1)Cc1ccccc1-3)CC2` (stereo not given), inactive: -7.49%.

For the compound `Clc1ccc(N2CCN(Cc3c[nH]c4ncccc34)CC2)cc1`, the activation is inactive: -11.8% and inactive: 1.94% and inactive: -29.9%. In the case of `Cc1nc(-c2ccc(OCC(C)C)c(C#N)c2)sc1C(=O)O` it was inactive: -11%; in that of `O=c1ccn([C@@H]2O[C@H](COP(=O)(O)OP(=O)(O)OP(=O)(O)O)[C@@H](O)[C@H]2O)c(=O)[nH]1`, inactive: 0.779%. With `O=C(c1cnccn1)N1CCC2(CC1)CCN(c1ccccc1)CC2`, the activation was inactive: -11%.

For the compound `COc1ccc2cc([S+]([O-])Cc3ncc(C)c(OC)c3C)nc2c1`, the activation is inactive: -20.8%.

In the case of `COc1ccc(C(=O)N2CCC3(CCCN(c4ncccn4)C3)CC2)cc1`, the activation was inactive: -2.15%.
